Article PMC4336329 (PLoS ONE, 2015)
Among all 310,000 compounds or so, about 2,200 (0.71%) showed an effect of 50% or more. The effect is printed as a negative number. Some of the results follow.

Target: human ether-à-go-go-related gene (hERG) potassium channel (human, UniProt Q12809)
Test: primary screen, population patch clamp on CHO cells stably expressing hERG

Chain of human ether-à-go-go-related gene (hERG) potassium channel (Q12809 whole entry, looked up): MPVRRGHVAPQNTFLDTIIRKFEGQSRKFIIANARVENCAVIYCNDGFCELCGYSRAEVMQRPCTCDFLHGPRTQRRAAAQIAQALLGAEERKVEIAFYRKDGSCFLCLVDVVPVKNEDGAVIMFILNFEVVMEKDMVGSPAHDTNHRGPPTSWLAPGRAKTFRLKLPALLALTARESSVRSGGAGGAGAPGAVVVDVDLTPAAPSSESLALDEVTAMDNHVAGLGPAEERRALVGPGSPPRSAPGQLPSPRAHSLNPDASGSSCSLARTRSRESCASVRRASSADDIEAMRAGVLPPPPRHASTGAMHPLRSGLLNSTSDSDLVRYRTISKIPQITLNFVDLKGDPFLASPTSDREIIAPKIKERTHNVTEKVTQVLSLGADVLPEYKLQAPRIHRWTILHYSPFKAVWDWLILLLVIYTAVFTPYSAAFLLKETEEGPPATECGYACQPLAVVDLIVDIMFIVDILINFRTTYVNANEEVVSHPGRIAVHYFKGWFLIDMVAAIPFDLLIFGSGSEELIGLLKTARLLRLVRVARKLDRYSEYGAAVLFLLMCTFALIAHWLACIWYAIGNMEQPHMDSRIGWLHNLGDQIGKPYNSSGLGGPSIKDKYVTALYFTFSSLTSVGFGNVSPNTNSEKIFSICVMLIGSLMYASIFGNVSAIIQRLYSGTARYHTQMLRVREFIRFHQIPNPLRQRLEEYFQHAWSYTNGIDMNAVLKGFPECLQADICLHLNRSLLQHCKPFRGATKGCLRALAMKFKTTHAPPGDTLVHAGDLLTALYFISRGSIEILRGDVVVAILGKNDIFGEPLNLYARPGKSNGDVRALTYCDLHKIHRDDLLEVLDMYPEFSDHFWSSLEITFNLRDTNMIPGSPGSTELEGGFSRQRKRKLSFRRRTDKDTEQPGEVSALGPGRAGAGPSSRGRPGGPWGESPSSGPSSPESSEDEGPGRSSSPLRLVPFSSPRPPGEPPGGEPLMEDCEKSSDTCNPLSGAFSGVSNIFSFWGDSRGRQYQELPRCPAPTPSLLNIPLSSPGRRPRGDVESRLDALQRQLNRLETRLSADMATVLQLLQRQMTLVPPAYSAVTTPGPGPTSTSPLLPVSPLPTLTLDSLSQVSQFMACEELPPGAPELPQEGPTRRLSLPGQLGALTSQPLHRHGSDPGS

| SMILES | hERG current change (%, negative = inhibition) at 1uM [%] |
| --- | --- |
| CC(=O)Nc1ccc(NC(=O)COc2ccc(Br)cc2C)cc1 | 5.46 |
| C=C(C=O)CC1CC(O)[C@]2(C)OC3CC4OC5C[C@]6(C)O[C@]7(C)CCC8OC9C[C@]%10(C)OC%11C(C)=CC(=O)OC%11CC%10OC9C[C@@H](C)C8OC7CC6O[C@]5(C)CC5OC5C4OC3CC2O1 (some centres unmarked) | -8.24 |
| CNC(=O)CSc1nnc(-c2ccco2)n1-c1ccccc1 | 11.3 |
| CCc1nnc(NC(=O)CSc2nnc(COc3ccccc3)n2-c2ccc(C)cc2)s1 | -8.98 |
| N=C(N)c1ccccc1 | -34.8 |
| COc1ccc(CN(C)CC(=O)Nc2cc3oc4ccccc4c3cc2OC)c(OC)c1 | 8.41 |
| C[C@@H](C(=O)N[C@@H](Cc1c[nH]c2ccccc12)C(=O)O)n1nnc2ccccc2c1=O | 23.7 |
| CC(C)Oc1ccc(C(=O)Nc2ccc3c(c2)n(C)c(=O)n3C)cc1 | 6.41 |
| O=C(Nc1sc2c(c1C(=O)O)CCCCC2)c1ccccc1 | 22 |
| Cc1ccc(S(=O)(=O)NC2=NCN(CC(=O)[O-])CN2)cc1.[Na+] | -2.9 |
| CCOC(=O)c1sc(=S)n(C)c1NC(=O)c1ccc(OC)cc1 | 10.9 |
| O=C(O)c1cccc(Oc2ncnc3sc4c(c23)CCCC4)c1 | 8.99 |
| Cc1coc2cc3oc(=O)c4c(c3cc12)CCCC4 | 8.03 |
| CC(NC(=O)/C(C#N)=C/c1ccc(Cl)c([N+](=O)[O-])c1)c1ccccc1 (centres unmarked) | 2.72 |
| CCC(=O)Nc1ccc2c(c1)OCCO2 | -2.64 |
| Cc1cc(SCC(=O)c2ccccc2)nc(=O)[nH]1 | 13.1 |
| Cc1ccc(N2C(=O)NC(NC(=O)c3ccc(Cl)cc3)(C(F)(F)F)C2=O)cc1 (centres unmarked) | 7.28 |
| N#Cc1ccccc1OCC(=O)NC(=O)NC1CCS(=O)(=O)C1 (centres unmarked) | 11.4 |
| CC1CN(S(=O)(=O)c2cccc(C(F)(F)F)c2)CC(C)O1 (centres unmarked) | 11.8 |
| CCOC(=O)COc1ccc(S(=O)(=O)NCc2ccco2)cc1 | 11.1 |
| COc1cccc(C(=O)NCC(=O)N/N=C(C)\C=C\c2ccccc2)c1 | 5.1 |
| COC(=O)Cc1[nH]n(-c2nc3ccccc3s2)c(=O)c1C(C)=Nc1ccc(OC)cc1 | 11.1 |

| SMILES | hERG current change (%, negative = inhibition) at 1uM [%] |
| --- | --- |
| Cc1onc(-c2ccccc2)c1C(=O)Nc1ccc(S(=O)(=O)NC(C)(C)C)cc1 | 10.4 |
| CC(C(=O)Nc1cccc([N+](=O)[O-])c1)N(c1ccccc1)S(C)(=O)=O (centres unmarked) | 5.26 |
| Cc1cc(N(CCO)CCO)ccc1N=Nc1cc(F)ccc1F | 1.05 |
| COC(=O)C1=C(c2ccc(OCc3ccccc3)cc2)C[C@@H]2CC[C@H]1N2C(=O)NCc1ccc(OC)c(OC)c1 | 16.3 |
| COc1ccc(-n2c(/C=C3/C(=O)Nc4ccccc43)nc3ccccc3c2=O)cc1 | 10.6 |
| Cc1ccc2c(c1)N1C(=O)c3ccccc3C1C1=C(CC(C)(C)CC1=O)N2 (centres unmarked) | 7.79 |
| Cc1cc(C)n(-c2ccc(C(=O)OCC(=O)Nc3cc(Cl)ccc3[N+](=O)[O-])cc2)n1 | 0.679 |
| CCOC(=O)N/N=C(\C)c1ccc(Oc2ncccn2)cc1 | 17.3 |
| O=C(O)CSCC(=O)N1CCN(Cc2ccc3c(c2)OCO3)CC1 | 15.5 |
| COCCCNC(=O)c1ccc2c(=O)n(CC3CCCO3)c(=S)[nH]c2c1 (centres unmarked) | -7.96 |
| O=C(O)[C@@H]1Cc2ccccc2N1 | 12.5 |
| O=C1c2ccccc2C(=O)N1CCn1c(=O)oc2ccccc21 | 16.1 |
| CC(=O)c1ccc(NC(=O)N[C@@H](Cc2ccccc2)C(=O)O)cc1 | 2.33 |
| CCC(=O)Nc1ccc(C(=O)CSc2nc3ccccc3[nH]2)cc1 | 10.3 |
| Cc1ccc(/C=N/n2c(C3CCCCC3)n[nH]c2=S)s1 | 13.9 |
| O=C(O)/C=C\C(=O)Nc1ccc(OCc2ccccc2)cc1 | 0.776 |
| O=C1NC(=S)S/C1=C\c1ccc(SCc2ccccc2)o1 | 14.5 |
| O=C(NCC1CCCO1)c1ccc(NS(=O)(=O)c2cccs2)cc1 (centres unmarked) | 8.92 |
| CC(Oc1ccccc1F)c1nnc(SCC(=O)c2c(N)n(C3CC3)c(=O)[nH]c2=O)o1 (centres unmarked) | 12.8 |
| N=c1c(C(=O)NCCc2ccccc2)cc2c(=O)n3ccccc3nc2n1CCCN1CCOCC1 | -77.8 |
| O=C(CCC(=O)c1cccs1)NCc1ccc(Cl)cc1 | 4.13 |
| CCOC(=O)Cn1c(=O)n(Cc2ccco2)c(=O)c2ccc(C(=O)NCCc3ccccc3)cc21 | 8 |
